Experimental data taken from the supplement of paper PMC7826260.
The other results are listed elsewhere or left out. The data describe in vitro nicking of single-stranded DNA by Rep domains for 1 h at 37 °C with 3 µM enzyme; only the middle of the 90-letter strands is printed. A value is the log2 ratio of uncut reads to the pool without enzyme; uncut sequences lie near 0, cut ones below; no hit call is given. Shares of all reads are compared; uncut strands gain when others are lost, and binding without cutting may add a little.

Columns and labels:
Assay in all cases: uncleaved DNA left, log2 of reads against the no-enzyme library (log2 ratio); higher = less cleavage (more negative = more Rep cleavage of the k-mer); sequences stand for … in CTCGTCCG…ACCGGAGA
[1] = tested on: T1, Rep nickase domain of Muscovy duck circovirus
T1 sequence (residues 1-111 of Rep, tag left off): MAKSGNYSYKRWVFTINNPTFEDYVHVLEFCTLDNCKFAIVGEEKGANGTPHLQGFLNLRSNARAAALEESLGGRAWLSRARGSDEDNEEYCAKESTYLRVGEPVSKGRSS
Method: (§1)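 A pool of 90-nt single-stranded DNAs with seven random bases just before the constant AC of the nick site (name = the seven bases) was cut by 3 µM recombinant His6-SUMO-tagged Rep nickase domain (300 nM DNA, 50 mM HEPES pH 8.0, 50 mM NaCl, 1 mM MnCl2, 1 h, 37 °C, three replicates). Uncut DNA was amplified and sequenced.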

[2] = tested on: T2, Rep nickase domain of banana bunchy top virus
T2 sequence (residues 1-94 of Rep, tag left off): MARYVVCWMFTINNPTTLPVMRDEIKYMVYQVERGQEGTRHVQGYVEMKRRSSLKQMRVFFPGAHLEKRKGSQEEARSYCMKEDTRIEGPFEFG
Method: as §1

[3] = tested on: T3, Rep nickase domain of cabbage leaf curl virus
T3 sequence (residues 1-116 of Rep, tag left off): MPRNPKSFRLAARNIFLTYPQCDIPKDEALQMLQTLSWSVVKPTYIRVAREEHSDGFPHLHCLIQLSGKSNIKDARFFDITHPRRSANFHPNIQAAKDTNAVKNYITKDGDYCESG
Method: as §1

[4] = tested on: T4, Rep nickase domain of chickpea chlorotic dwarf virus
T4 sequence (residues 1-124 of Rep, tag left off): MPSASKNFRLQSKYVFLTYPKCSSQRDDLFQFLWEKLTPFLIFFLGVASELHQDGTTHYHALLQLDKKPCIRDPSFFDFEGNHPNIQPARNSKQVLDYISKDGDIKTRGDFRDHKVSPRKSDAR
Method: as §1

[5] = tested on: T5, Rep nickase domain of faba bean necrotic yellows virus
T5 sequence (residues 1-98 of Rep, tag left off): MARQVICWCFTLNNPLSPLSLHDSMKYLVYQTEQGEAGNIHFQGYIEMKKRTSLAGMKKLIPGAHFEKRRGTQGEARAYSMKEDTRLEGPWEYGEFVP
Method: as §1

[6] = tested on: T6, Rep nickase domain of maize striate mosaic virus
T6 sequence (residues 1-117 of Rep, tag left off): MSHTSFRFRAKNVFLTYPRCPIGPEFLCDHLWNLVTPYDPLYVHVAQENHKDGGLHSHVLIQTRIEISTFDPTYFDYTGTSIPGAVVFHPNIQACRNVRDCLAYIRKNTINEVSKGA
Method: as §1

[7] = tested on: T7, Rep nickase domain of porcine circovirus 2
T7 sequence (residues 2-116 of Rep, tag left off): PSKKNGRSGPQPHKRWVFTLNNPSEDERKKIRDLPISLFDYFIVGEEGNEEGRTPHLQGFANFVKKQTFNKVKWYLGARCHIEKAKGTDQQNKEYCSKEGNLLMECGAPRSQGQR
Method: as §1

[8] = tested on: T8, Rep nickase domain of tomato golden mosaic virus
T8 sequence (residues 1-124 of Rep, tag left off): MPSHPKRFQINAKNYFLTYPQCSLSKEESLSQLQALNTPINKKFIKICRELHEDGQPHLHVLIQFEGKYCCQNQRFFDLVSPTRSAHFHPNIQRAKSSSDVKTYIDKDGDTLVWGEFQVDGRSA
Method: as §1

[9] = tested on: T9, Rep nickase domain of tomato yellow leaf curl virus
T9 sequence (residues 1-136 of Rep, tag left off): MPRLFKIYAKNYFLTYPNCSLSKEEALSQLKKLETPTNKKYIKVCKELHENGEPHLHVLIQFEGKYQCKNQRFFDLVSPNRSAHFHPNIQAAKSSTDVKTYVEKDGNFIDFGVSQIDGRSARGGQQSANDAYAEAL
Method: as §1

[10] = tested on: T10, Rep nickase domain of wheat dwarf virus
T10 sequence (residues 1-137 of Rep, tag left off): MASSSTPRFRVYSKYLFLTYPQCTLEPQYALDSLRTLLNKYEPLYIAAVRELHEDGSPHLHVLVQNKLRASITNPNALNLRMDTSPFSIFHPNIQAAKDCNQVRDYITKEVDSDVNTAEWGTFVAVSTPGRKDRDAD
Method: as §1

Row | Sequence | uncleaved DNA left (log2) [1] | uncleaved DNA left (log2) [2] | uncleaved DNA left (log2) [3] | uncleaved DNA left (log2) [4] | uncleaved DNA left (log2) [5] | uncleaved DNA left (log2) [6] | uncleaved DNA left (log2) [7] | uncleaved DNA left (log2) [8] | uncleaved DNA left (log2) [9] | uncleaved DNA left (log2) [10]
1 | ATGCTTG | 0.0464 | 0.00476 | -0.182 | -0.744 | -0.0121 | -0.536 | 0.194 | 0.0592 | 0.0135 | 0.0409
2 | TGAACTA | -0.009 | 0.0466 | 0.137 | -0.649 | -0.0283 | 0.127 | -0.0387 | -0.0508 | 0.149 | 0.022
3 | TGCAACC | -0.103 | 0.11 | 0.231 | -0.206 | -0.0912 | 0.277 | -1.74 | 0.0577 | 0.0442 | 0.00232
4 | CATTTAA | -0.254 | -0.344 | -0.068 | -0.637 | -0.0159 | -0.916 | -0.459 | 0.0496 | -0.0144 | -0.0776
5 | GTCGAGT | 0.0813 | -0.0511 | 0.415 | 0.715 | 0.0234 | 1.43 | 0.115 | 0.0622 | -0.0638 | 0.0291
6 | CTGGGTT | 0.135 | -0.0212 | 0.411 | 0.161 | 0.0623 | 1.17 | 0.147 | 0.0948 | 0.0748 | -0.0155
7 | CACTCAC | -0.104 | -0.0912 | -0.35 | -0.767 | -0.147 | -0.876 | -0.822 | -0.303 | -0.0666 | -0.0909
8 | TTTTTGC | -0.0168 | -0.0351 | -0.621 | -0.186 | 0.0669 | -1.2 | 0.00399 | -0.0772 | -0.0378 | -0.219
9 | CCTCCAA | -0.0788 | 0.00749 | -0.0052 | -0.12 | 0.0158 | -0.494 | 0.0437 | -0.102 | -0.00386 | 0.0752
10 | GGTAACC | 0.117 | 0.0946 | 0.429 | 1.02 | -0.0108 | 1.75 | 0.0403 | 0.0548 | 0.172 | 0.144
11 | GACTCAT | -0.124 | -0.0269 | 0.303 | -0.131 | -0.064 | 1.23 | -2.76 | -0.0438 | 0.0373 | 0.0805
12 | CGTTGCG | -0.0106 | -0.00069 | 0.172 | 1.37 | -0.000891 | 1.57 | 0.101 | -0.0337 | -0.0324 | -0.0125
13 | GACAATA | 0.071 | 0.0722 | 0.261 | -0.602 | 0.114 | 0.86 | 0.19 | 0.0663 | 0.0534 | 0.163
14 | GCCGCTT | 0.0366 | -0.128 | 0.139 | -0.812 | -0.0295 | 0.00339 | -0.018 | 0.115 | -0.0822 | -0.0125
15 | TGGCCCC | 0.107 | 0.106 | 0.45 | 0.917 | -0.175 | 1.31 | 0.0676 | 0.0238 | 0.109 | 0.0238
16 | GCTATTT | -0.232 | -0.261 | -0.104 | -1.09 | -0.0988 | 0.0594 | -0.333 | -0.159 | -0.176 | -0.198
17 | AGACGGC | -0.0105 | 0.0718 | 0.329 | 0.692 | 0.108 | 0.349 | 0.116 | 0.0674 | -0.128 | 0.0601
18 | CGCGGCC | -0.0204 | -0.03 | -0.133 | 0.0408 | -0.0352 | -0.346 | -0.026 | -0.0162 | -0.1 | -0.123
19 | ACGTCGA | -0.0331 | -0.183 | -0.565 | -0.646 | 0.0616 | -1.03 | 0.0617 | 0.0089 | -0.144 | -0.0805
20 | GAGCCTG | 0.144 | 0.0415 | 0.116 | 0.762 | 0.0403 | 1.68 | 0.0866 | 0.12 | 0.0327 | 0.161
21 | TTACACG | -0.11 | -0.189 | -1.1 | -1.39 | -0.0682 | -1.38 | 0.0292 | -0.189 | -0.0671 | -0.215
22 | GCAGTAA | -0.0187 | 0.156 | 0.0364 | 0.316 | 0.1 | 0.008 | 0.0633 | 0.0386 | 0.0732 | 0.142
23 | TTTTTGT | -1.39 | -0.101 | -0.0645 | -0.774 | -0.0416 | -1.01 | -0.73 | -0.167 | -0.102 | -0.0813
24 | ACGCTGA | 0.184 | -0.0124 | -0.00248 | 0.458 | 0.0666 | 0.26 | 0.177 | 0.152 | -0.00961 | -0.042
25 | TGCTTGA | 0.0603 | -0.0489 | -0.0296 | -0.055 | 0.0892 | -0.488 | -0.0371 | -0.0352 | 0.0174 | -0.0281
26 | CACGCAA | -0.0222 | -0.044 | -0.123 | -0.622 | 0.00321 | -0.713 | 0.00614 | 0.013 | -0.0613 | 0.116
27 | ATCCTAC | -0.175 | -0.107 | -0.394 | -2.24 | -0.0285 | -0.93 | -0.139 | -0.0975 | -0.184 | 0.00207
28 | TGGCGGG | 0.0849 | -0.0976 | -0.169 | -0.0661 | 0.0191 | -0.303 | 0.0832 | -0.136 | -0.141 | -0.197
29 | CAATATG | -0.0573 | -0.0159 | -0.655 | -0.725 | 0.0405 | -1.26 | 0.0795 | -0.0225 | -0.041 | -0.0912
30 | TGACAGG | 0.0478 | 0.0183 | 0.246 | 0.825 | -0.0919 | 0.832 | 0.0216 | -0.0729 | 0.0399 | 0.0202
